This is one part of the list. These are noisy estimates, calculated here from bound and input reads.
molecular target: T1, Pho4 (S. cerevisiae) (UniProt P07270); experiment: relative binding free energy (BET-seq); higher = weaker binding; conditions: reference: library average
T1 sequence: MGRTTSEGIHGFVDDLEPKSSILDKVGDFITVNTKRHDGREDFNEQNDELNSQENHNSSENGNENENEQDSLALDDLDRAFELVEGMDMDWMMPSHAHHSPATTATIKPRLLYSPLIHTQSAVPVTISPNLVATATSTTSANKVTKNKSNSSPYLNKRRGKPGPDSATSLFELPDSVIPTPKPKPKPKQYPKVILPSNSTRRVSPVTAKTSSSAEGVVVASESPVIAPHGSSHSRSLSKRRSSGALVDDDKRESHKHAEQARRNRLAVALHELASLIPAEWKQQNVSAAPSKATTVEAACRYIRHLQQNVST

Sequence | relative binding free energy [kcal/mol]
TGAGGCACGTGCGGAG | -0.24
TTACGCACGTGAGTTG | 0.16
GGCGGCACGTGCGGGA | -0.11
TCCGGCACGTGTTGGG | 0.03
ACGTTCACGTGTGGGG | 0.25
ATATACACGTGTTAGG | 0.03
TTGGTCACGTGGGTCA | 0.04
TTTAACACGTGTGCTG | -0.05
CAGAGCACGTGTTGTG | -0.22
TGGACCACGTGGTAGG | -0.06
AATATCACGTGCTTGG | 0.17
GTAGGCACGTGCGGCT | -0.07
TGTATCACGTGTAATT | 0.27
TGTCACACGTGTGGGT | 0.08
CTGTACACGTGAGTAT | 0.28
GGTGACACGTGGGTTA | 0.08
TTTGACACGTGAGTGT | 0.18
CTAGACACGTGGTGGG | -0.06
TTGGGCACGTGCGGGC | -0.18
GTTATCACGTGCTGTA | -0.01
GAATACACGTGTGAGT | 0.24
TTGGCCACGTGTGTTG | -0.08
ACGTGCACGTGCGGTT | 0.04
GATTACACGTGCGGGG | 0.09
GCTTACACGTGATGTG | 0.29
ATGGTCACGTGTGTGG | 0.05

Sequence | relative binding free energy [kcal/mol]
TTGTGCACGTGGGGAA | -0.07
CGCGGCACGTGATGTA | 0.09
TGTGCCACGTGGATGT | -0.06
TATCGCACGTGGGCTG | -0.21
AGGTGCACGTGCATTG | 0.02
TTCATCACGTGCTGTT | 0.17
TATTTCACGTGACGTG | 0.32
AAGGGCACGTGAGTCG | -0.08
ATGGGCACGTGCTAGG | -0.33
TCTAACACGTGAGTGT | 0.15
GCCGGCACGTGGTTAG | -0.1
TTTCTCACGTGTGGGC | 0.36
TTAGTCACGTGGTTTA | 0.04
GGGGGCACGTGTTGCT | 0
TGGAGCACGTGACGGA | 0.02
GTTATCACGTGGGCGC | 0.12
GGCGGCACGTGGGTAT | -0.11
GAAGTCACGTGTGAAT | 0.28
TGTTTCACGTGGTCCA | 0.17
AGTACCACGTGTGTGG | -0.1
CGTGACACGTGATTTT | 0.06
AGCGACACGTGTTTGT | 0.05
TATATCACGTGCTTAG | 0.04
TCAGGCACGTGTGTGA | -0.12
TGTGGCACGTGAATGC | 0.1
TCAGCCACGTGTGGGG | 0.02

Sequence | relative binding free energy [kcal/mol]
TGTTACACGTGGCGCT | 0.13
GTAGCCACGTGGTGTT | -0.22
CGGCGCACGTGAAGGG | 0.1
GTAGACACGTGTGCGG | 0.02
GTGAGCACGTGTTCGT | -0.02
TGTGACACGTGCTTTA | -0.1
AGAGTCACGTGATGGT | 0.19
TTGGACACGTGAAATT | 0.41
CGGTACACGTGTGAGG | 0.21
TCTTTCACGTGGAGTG | 0.27
AATTTCACGTGAGTCT | 0.37
GCGGACACGTGGGGGC | -0.17
AAATGCACGTGGTTAA | -0.03
ATCTGCACGTGTGGGC | -0.03
CTTGGCACGTGGGAAG | -0.15
TGTTTCACGTGATTAC | 0.3
ATAGGCACGTGTTGGA | -0.16
TTCAGCACGTGAGGTA | 0.24
ATTCGCACGTGAGAGG | 0.2
CGTTTCACGTGTGCAG | 0.23
GAGGACACGTGTAGTT | 0.22
TATATCACGTGGCTGT | 0.12
TAGGGCACGTGTGTCA | -0.09
AGCGGCACGTGGGAGG | -0.14
CGGTACACGTGTGTTA | 0.08
AAGGTCACGTGTTGCA | 0.11

Sequence | relative binding free energy [kcal/mol]
GTCTGCACGTGCTGGG | 0.16
TAGTACACGTGTTGTG | 0.01
TTAGGCACGTGGGTAC | -0.38
GATAACACGTGGGGGC | 0.02
CGTAGCACGTGGTTGT | -0.1
GAAGGCACGTGGAATG | 0.07
TTATACACGTGCGAGG | 0.03
CTGTGCACGTGATTGG | 0.22
ATACGCACGTGTTGGT | -0.17
GTTTTCACGTGTTTAA | 0.33
CATAGCACGTGGGGCG | -0.23
AGGTCCACGTGGGTAG | -0.07
TCGGGCACGTGTAGTA | 0.01
CAGTGCACGTGGCGGG | -0.09
GTATACACGTGGTTGA | -0.03
GATCGCACGTGCAGGT | 0.19
TTAATCACGTGGAGGC | 0.07
TATAGCACGTGTTTTG | -0.08
CGTGACACGTGTGCGG | -0.04
ATGGTCACGTGAGTGG | 0.36
GGCGGCACGTGGCCTG | -0.17
TTTTACACGTGTAAAA | 0.16
ATGGGCACGTGACTTT | -0.04
GGGTACACGTGTGCGA | 0.02
AACGTCACGTGGCGGG | 0.15
CTTGGCACGTGCATTG | -0.1

Sequence | relative binding free energy [kcal/mol]
TAATGCACGTGTCGTT | 0.02
GAGCGCACGTGAGTTT | 0.24
AGATGCACGTGAGTGA | 0.02
TTATGCACGTGGCTGA | -0.09
GGAGACACGTGGGTCG | -0.11
ATGGCCACGTGGGACG | -0.09
CGTGCCACGTGTTAGT | -0.03
GGTGCCACGTGGGGTT | -0.22
AGGAACACGTGGTTTA | 0.1
GGGAGCACGTGAAGGA | -0.04
TGTGCCACGTGTGGTC | -0.03
TGTTGCACGTGGCTGT | -0.05
AAGTACACGTGGTAGG | -0.07
TATAACACGTGGTGAA | -0.05
GGATGCACGTGGGGGG | -0.05
GTTCACACGTGCGGTT | 0.22
TGTTGCACGTGTGTGG | 0.02
CGTATCACGTGAAGGT | 0.22
TGATGCACGTGTTCAA | 0.06
CTGTTCACGTGGATGG | 0.24
TAGGTCACGTGTTAAT | 0.12
GAAATCACGTGAGGGT | 0.35
GACGTCACGTGGTTGG | 0.16
TCAAACACGTGTGTGG | 0.05
AGTGGCACGTGGGCTG | -0.18
TGTAACACGTGGTTGA | -0.06

Sequence | relative binding free energy [kcal/mol]
GGACGCACGTGGGGGC | -0.17
AATTGCACGTGTGGCG | 0.09
GTACTCACGTGTGTTG | 0.15
GAAATCACGTGGTATA | 0.29
TTTTCCACGTGTGTCA | 0.27
TTTTACACGTGTATGG | 0.15
GAGAACACGTGAGTGG | 0.31
GTTGTCACGTGGCTTT | 0.07
GTTCGCACGTGGCTGT | -0.18
AGGGTCACGTGCTATG | 0
ATATTCACGTGTGCTG | 0.06
TGCAACACGTGGGATT | -0.02
GTTCGCACGTGTATGT | 0.2
AGTGTCACGTGTGAAT | 0.05
ATGGGCACGTGCCGTG | -0.23
GGGGCCACGTGGGGTC | -0.1
TTGTGCACGTGAGGCA | 0.17
AGATGCACGTGTTGGA | -0.06
TGATTCACGTGAGTCG | 0.41
AACGGCACGTGAAGGG | 0.28
TTGGTCACGTGCATGC | 0
TAATGCACGTGGGAGT | -0.12
TGGATCACGTGAGGTA | 0.36
TCTGTCACGTGTTTCG | 0.09
GTTTTCACGTGACATG | 0.27
GTAGGCACGTGGAGTA | -0.1

Sequence | relative binding free energy [kcal/mol]
TTTCTCACGTGGGTTT | 0.19
ATGACCACGTGTGGGT | -0.02
TGTTGCACGTGTTACT | 0.02
TAGATCACGTGCTGTG | -0.07
TGGTTCACGTGCTGGG | 0.28
TATTGCACGTGTCGGA | 0.01
TATATCACGTGTTTAA | 0.16
CATAACACGTGTGTTT | 0.1
AGAGGCACGTGGGAAT | -0.12
GTAGCCACGTGATTTG | 0.21
TGTAACACGTGGTCAA | 0.05
GGATTCACGTGGTATG | 0.25
TTGGCCACGTGTGGGG | 0.01
TGGAACACGTGTGTTT | 0.01
AGGTTCACGTGTGAGC | 0.24
GATGTCACGTGAATAT | 0.44
GGTGGCACGTGGTTTG | -0.06
GGGTTCACGTGGACGT | 0.33
GTGTACACGTGCTGTT | -0.01
ATAAACACGTGTTATA | 0.15
CAGTTCACGTGTAAGT | 0.39
GGAAACACGTGGGTAT | 0.04
TGCTGCACGTGAGGCG | 0
TCCTTCACGTGTTTTT | 0.44
TATGACACGTGGGTGT | -0.13
TATGTCACGTGGGACT | 0.04

Sequence | relative binding free energy [kcal/mol]
ACGTTCACGTGAGAGT | 0.4
TTGGACACGTGGGTGC | -0.07
TGCGGCACGTGGTTTC | -0.11
CAGGCCACGTGTAGGT | -0.06
AGAATCACGTGAGTAT | 0.36
TATTGCACGTGAGTAT | 0.18
TATTACACGTGTTGTG | -0.03
GGTGGCACGTGGAAGA | -0.03
GGGCTCACGTGAGGAA | 0.57
TTTAGCACGTGAATGA | 0.24
GTCTTCACGTGTTGTT | 0.23
TTTCGCACGTGTAGTT | 0.06
TAGTTCACGTGGGGAG | 0.26
CAATTCACGTGGGTTG | 0.09
TGTTCCACGTGGTTAT | 0.05
TGTGGCACGTGCGTAC | -0.2
GGCGCCACGTGGGGGG | -0.24
GGTTACACGTGACTTG | 0.24
CTGGGCACGTGTGTGT | 0.04
GGCGTCACGTGCTTTT | 0.12
CATTTCACGTGTGTAG | 0.32
GAGTGCACGTGTATAG | 0.03
AGGTACACGTGGGATG | -0.17
GGTTGCACGTGAACGG | 0.28
TGGGGCACGTGCTTCT | -0.19
GTTTGCACGTGTATGT | 0.15

Sequence | relative binding free energy [kcal/mol]
ACATTCACGTGTTTTT | 0.28
ACTTTCACGTGTGGAG | 0.31
AGGAGCACGTGAGTAT | 0.2
AGATGCACGTGCGTGG | -0.18
TCTTTCACGTGTTCGG | 0.17
AGTCCCACGTGGGTTG | -0.23
TTTAGCACGTGTTCTT | -0.06
TTTGGCACGTGCGCGT | -0.19
ATGTTCACGTGGGACG | 0.24
ATGTTCACGTGGATAT | 0.23
GACTTCACGTGTTTGG | 0.25
TGATACACGTGTTGTC | 0.15
TATTCCACGTGCGGTG | 0.06
CCTGGCACGTGTGAGG | -0.06
TGTCACACGTGGGCGA | 0.03
TTGGGCACGTGCTTCT | -0.07
TAAAACACGTGTAGTG | 0.05
AGGAGCACGTGTGAGT | 0
GTGATCACGTGAGGCT | 0.24
AATTGCACGTGGGGAG | -0.1
CGTTACACGTGTTGAG | 0.2
TTCGGCACGTGACGTG | 0

Source: the BET-seq Pho4 binding data (Le et al. 2018)
